Results from paper PMC5892938.
This is one part of the list. The exact form of the protein is not confirmed.

What follows are sequences tested against GST-SBP-ILF3 (Homo sapiens) (UniProt Q12906) (assay: targeted RNA Bind-n-Seq). Conditions: RBNS binding buffer: 25 mM Tris pH 7.5, 150 mM KCl, 3 mM MgCl2, 0.1% Tween, 0.5 mg/mL BSA, 1 mM DTT; 27 nM protein, 750 pM RNA pool; temperature not stated; high values mean tight binding; sequences stand for … in GGGUAAAAGCGAGGUGAA…CGGGACAAGUAUUAUGGG.

Q: With “UUUUUUUUUUGAGAUGGCUUCCAUCUCCGG [tttttgagapaired]” as the sequence, how does the binding signal (log2 fold change) read?
A: The binding signal (log2 fold change) was 0.29.

Q: How did the binding signal (log2 fold change) turn out when “UUUUUUUUUUGAGAACGAGACGUUCUCCUA [tttttgagapaired]” was run?
A: Its binding signal (log2 fold change) is 0.028.

Q: “UUUUUUUUUUGAGACUGUUUCAGUUUCCUA [tttttgagapaired]” was tested. Which binding signal (log2 fold change) did it give?
A: The binding signal (log2 fold change) was 0.0819.

Q: “GUGUGUGGUGUUGGCGCCUAACACCGCGCA [gtspaired]” was tested. Which binding signal (log2 fold change) did it give?
A: The binding signal (log2 fold change) was -0.3.

Q: For “UUCCUUCUUCCUCCGGGGGAGGGAGAGGGA [ctspaired]”, which binding signal (log2 fold change) is on record?
A: The binding signal (log2 fold change) was -0.809.

Q: How did the binding signal (log2 fold change) turn out when “UUUUUUUUUUGAGACUGUGUCAGUCUCCUA [tttttgagapaired]” was run?
A: The binding signal (log2 fold change) was 0.5.

Q: “UUUUUUUUUUGAGACCGAGACGGUUUCCUG [tttttgagapaired]” was tested. Which binding signal (log2 fold change) did it give?
A: Its binding signal (log2 fold change) is 0.817.

Q: With “GGUGGUUGUGUUGGAGUCUAACACAGCCGC [gtspaired]” as the sequence, how does the binding signal (log2 fold change) read?
A: The binding signal (log2 fold change) was -0.618.

Q: How did the binding signal (log2 fold change) turn out when “UUUUUUUUUUGAGACGGUGUCUGUCUCCUG [tttttgagapaired]” was run?
A: Its binding signal (log2 fold change) is 1.08.

Q: For “GUGUGGUGUGUUGGUCCCUAACACACCAUA [gtspaired]”, which binding signal (log2 fold change) is on record?
A: Its binding signal (log2 fold change) is -0.667.

Q: Which binding signal (log2 fold change) does the source give for “UUUUUUUUUUGAGAGUGCGACAUUCUUCUA [tttttgagapaired]” here?
A: Its binding signal (log2 fold change) is 0.138.

Q: “UUUUUUUUUUGAGAUGGAACCCAUCUCCUG [tttttgagapaired]” was tested. Which binding signal (log2 fold change) did it give?
A: Its binding signal (log2 fold change) is 0.128.

Q: For “GGUUGGUGUGUUGGUGUCUAACACAUCGAC [gtspaired]”, which binding signal (log2 fold change) is on record?
A: The binding signal (log2 fold change) was -0.486.

Q: For “GUGUUGUGUGUUGGAUCCUAACACACAGCA [gtspaired]”, which binding signal (log2 fold change) is on record?
A: The binding signal (log2 fold change) was 0.0682.

Q: How did the binding signal (log2 fold change) turn out when “GUGGUUGGUGUUGGCUUCUAACACCGAUCA [gtspaired]” was run?
A: The binding signal (log2 fold change) was -0.881.

Q: How did the binding signal (log2 fold change) turn out when “UUUUUUUUUUGAGAGUGCAACAUUCUCCAG [tttttgagapaired]” was run?
A: Its binding signal (log2 fold change) is 0.00839.

Q: Which binding signal (log2 fold change) does the source give for “UUUUUUUUUUGAGAUCGGCACGAUCUUCUA [tttttgagapaired]” here?
A: The binding signal (log2 fold change) was 0.0275.

Q: With “UUUUUUUUUUGAGAUCGGUCCGAUCUCCAG [tttttgagapaired]” as the sequence, how does the binding signal (log2 fold change) read?
A: Its binding signal (log2 fold change) is 0.438.

Q: With “UUUUUUUUUUGAGACCGGGUCGGUUUCCAG [tttttgagapaired]” as the sequence, how does the binding signal (log2 fold change) read?
A: Its binding signal (log2 fold change) is 0.571.

Q: For “UUUUUUUUUUGAGACCGCGACGGUCUCCGG [tttttgagapaired]”, which binding signal (log2 fold change) is on record?
A: The binding signal (log2 fold change) was 0.416.

Q: “UUUUUUUUUUGAGAGCGAGUCGUUCUCCAG [tttttgagapaired]” was tested. Which binding signal (log2 fold change) did it give?
A: Its binding signal (log2 fold change) is 0.122.

Q: Which binding signal (log2 fold change) does the source give for “UUUUUUUUUUGAGAUCGGAUCGAUCUCCGG [tttttgagapaired]” here?
A: The binding signal (log2 fold change) was 0.236.

Q: How did the binding signal (log2 fold change) turn out when “UUUUUUUUUUGAGACGGGCUCCGUCUCCUA [tttttgagapaired]” was run?
A: Its binding signal (log2 fold change) is 0.587.

Q: With “GUUGUGUGUGUUGGCUUCUAACACACGCAG [gtspaired]” as the sequence, how does the binding signal (log2 fold change) read?
A: The binding signal (log2 fold change) was -0.766.

Q: For “UUUUUUUUUUGAGAGGGCUACCCUCUUCUG [tttttgagapaired]”, which binding signal (log2 fold change) is on record?
A: Its binding signal (log2 fold change) is 0.685.

Q: With “UUUUUUUUUUGAGACCGGAACGGUUUUCUA [tttttgagapaired]” as the sequence, how does the binding signal (log2 fold change) read?
A: The binding signal (log2 fold change) was 0.0897.

Q: With “UUUUUUUUUUGAGAGGGUAUCCCUUUCCAG [tttttgagapaired]” as the sequence, how does the binding signal (log2 fold change) read?
A: Its binding signal (log2 fold change) is 0.0726.

Q: Which binding signal (log2 fold change) does the source give for “GUGGUGUGUGUUGGUUCCUAACACACAUCG [gtspaired]” here?
A: The binding signal (log2 fold change) was -0.803.

Q: “GGUGUGUGUGUUGGUGCCUAACACAUACGC [gtspaired]” was tested. Which binding signal (log2 fold change) did it give?
A: Its binding signal (log2 fold change) is -0.869.

Q: “GUUGGUGGUGUUGGACCCUAACACCGCCGA [gtspaired]” was tested. Which binding signal (log2 fold change) did it give?
A: Its binding signal (log2 fold change) is -0.00764.

Q: “UUUUUUUUUUGAGACUGUCACAGUCUUCUG [tttttgagapaired]” was tested. Which binding signal (log2 fold change) did it give?
A: Its binding signal (log2 fold change) is 0.402.

Q: For “GUGUGUUGUGUUGGUCCCUAACACAGCACG [gtspaired]”, which binding signal (log2 fold change) is on record?
A: Its binding signal (log2 fold change) is -0.565.

Q: “UUUUUUUUUUGAGAUGGCAGCCAUCUCCAG [tttttgagapaired]” was tested. Which binding signal (log2 fold change) did it give?
A: Its binding signal (log2 fold change) is 0.573.

Q: How did the binding signal (log2 fold change) turn out when “UUUUUUUUUUGAGAGCGUUCCGCUCUCCUA [tttttgagapaired]” was run?
A: Its binding signal (log2 fold change) is 0.41.

Q: Which binding signal (log2 fold change) does the source give for “UUUUUUUUUUGAGACGGAAGCCGUUUCCGG [tttttgagapaired]” here?
A: The binding signal (log2 fold change) was 0.699.

Q: With “GUGUGUGGUGUUGGCUUCUAACACCGCAUA [gtspaired]” as the sequence, how does the binding signal (log2 fold change) read?
A: Its binding signal (log2 fold change) is -0.905.

Q: How did the binding signal (log2 fold change) turn out when “GUGUGGUGUGUUGGCCUCUAACACAUCACG [gtspaired]” was run?
A: The binding signal (log2 fold change) was -0.756.

Q: Which binding signal (log2 fold change) does the source give for “UUUUUUUUUUGAGACGGUGUCUGUCUUCUA [tttttgagapaired]” here?
A: Its binding signal (log2 fold change) is 0.725.

Q: Which binding signal (log2 fold change) does the source give for “UUUUUUUUUUGAGAUGGUGUCCAUCUUCUA [tttttgagapaired]” here?
A: The binding signal (log2 fold change) was 0.484.

Q: For “GUGUGUUGUGUUGGAACCUAACACAACGCA [gtspaired]”, which binding signal (log2 fold change) is on record?
A: The binding signal (log2 fold change) was -0.803.

Q: With “GUGUGUGGUGUUGGCACCUAACACCGCACA [gtspaired]” as the sequence, how does the binding signal (log2 fold change) read?
A: Its binding signal (log2 fold change) is -0.915.

Q: How did the binding signal (log2 fold change) turn out when “UUUUUUUUUUGAGACGGUGGCCGUCUCCAG [tttttgagapaired]” was run?
A: The binding signal (log2 fold change) was 0.723.

Q: “GUGUGGUGUGUUGGUCCCUAACACACCACG [gtspaired]” was tested. Which binding signal (log2 fold change) did it give?
A: The binding signal (log2 fold change) was -0.307.

Q: “UUUUUUUUUUGAGAUCGAGACGAUCUUCUG [tttttgagapaired]” was tested. Which binding signal (log2 fold change) did it give?
A: The binding signal (log2 fold change) was -0.278.

Q: Which binding signal (log2 fold change) does the source give for “UUUUUUUUUUGAGAUGGUUUCCAUCUCCUA [tttttgagapaired]” here?
A: The binding signal (log2 fold change) was -0.235.

Q: For “UUUUUUUUUUGAGACCGUCACGGUCUCCUG [tttttgagapaired]”, which binding signal (log2 fold change) is on record?
A: Its binding signal (log2 fold change) is 0.302.

Q: How did the binding signal (log2 fold change) turn out when “GUGUGUUGUGUUGGAGUCUAACACAGCACG [gtspaired]” was run?
A: The binding signal (log2 fold change) was -0.665.

Q: With “GUGUGUGGUGUUGGCAUCUAACACCGCGCG [gtspaired]” as the sequence, how does the binding signal (log2 fold change) read?
A: Its binding signal (log2 fold change) is -0.685.

Q: “UUUUUUUUUUGAGAUGGGGUCCGUCUCCGG [tttttgagapaired]” was tested. Which binding signal (log2 fold change) did it give?
A: The binding signal (log2 fold change) was 0.972.

Q: “UUUUUUUUUUGAGACUGCUCCAGUCUUCUA [tttttgagapaired]” was tested. Which binding signal (log2 fold change) did it give?
A: The binding signal (log2 fold change) was 0.675.

Q: Which binding signal (log2 fold change) does the source give for “UUUUUUUUUUGAGAGGGCGACCCUCUCCGG [tttttgagapaired]” here?
A: Its binding signal (log2 fold change) is 0.376.
